Over roughly 81,000 sequences, “one-hybrid fitness for binding parS DNA” has its median near -0.17; the highest 2% begin near 0.51. The list shows a part of the results.
B1: Caulobacter ParB omega fusion; a variant is named by its letters at X, in order, B8GW30 (parent)
chain: MESVVVGEPGMSEGRRGLGRGLSALLGEVDAAPAQAPGEQLGGSREAPIEILQRNPDQPRRTFREEDLEDLSNSIREKGVLQPILVRPSPDTAGEYQIVAGERAWRAAQRAGLKTVPIMVRELDDLAVLEIGIIENVQRADLNVLEEALSYKVLMEKFERTQENIAQTIGKSXSHVANXMRLLXLPDEVQSYLVSGELTAXHARAIAAAADPVALAKQIIEGGLSVRETEALARKAPNLSAGKSKGGRPPRVKDTDTQALESDLSSVLGLDVSIDHRGSTGTLTITYATLEQLDDLCNRLTRGI

Variants of: B1
Assay: one-hybrid fitness for binding parS DNA (scaled: cognate 1, non-cognate 0); higher = stronger binding
Conditions: with parS DNA site
Method in brief: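 The reporter was HIS3, with the binding site 19 bp from the promoter, in E. coli USO used for bacterial one-hybrid selection of Caulobacter ParB libraries with four specificity codons randomised. Growth was on M9 lacking histidine, with 0.1 mM IPTG and 5 mM 3-AT, for 48 hours at 37°C. Illumina sequencing covered plasmids before and after selection; three replicate libraries were pooled and variants with under 10 reads dropped. A fitness score is the log change in variant-to-wild-type read ratio, rescaled to the cognate and non-cognate references.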

Variant	one-hybrid fitness for binding parS DNA
NHYS	≤ 0.2
SMDG	≤ 0.2
VART	≤ 0.2
EHPL	≤ 0.2
KRQH	≤ 0.2
PITV	≤ 0.2
LSPL	≤ 0.2
RCFG	1.01
VFCL	≤ 0.2
FAGR	≤ 0.2
DGHY	≤ 0.2
PLDK	≤ 0.2
WLGW	≤ 0.2
ISSW	≤ 0.2
TACV	≤ 0.2
KMAA	≤ 0.2
ATKY	≤ 0.2
YPPL	≤ 0.2
TRCK	≤ 0.2
TLQT	≤ 0.2
RLLD	0.231
PCPD	≤ 0.2
RKFG	0.946
IARQ	≤ 0.2
TIMD	≤ 0.2

Variant	one-hybrid fitness for binding parS DNA
RQLV	≤ 0.2
SYDS	≤ 0.2
RAWV	≤ 0.2
RQLK	≤ 0.2
INEL	≤ 0.2
LCSI	≤ 0.2
YVKC	≤ 0.2
CCNC	≤ 0.2
RYYF	0.22
VPHD	≤ 0.2
SFLI	≤ 0.2
MYGF	≤ 0.2
QMSC	≤ 0.2
TYHH	≤ 0.2
SWVD	≤ 0.2
PFSE	≤ 0.2
AFRT	≤ 0.2
EQDS	≤ 0.2
TGCE	≤ 0.2
RHPH	≤ 0.2
RHQQ	≤ 0.2
KHQS	≤ 0.2
PQTY	≤ 0.2
SKKY	≤ 0.2
VSAL	≤ 0.2

Variant	one-hybrid fitness for binding parS DNA
ITLC	≤ 0.2
IPKY	≤ 0.2
FRMC	≤ 0.2
PEHS	≤ 0.2
YMMV	≤ 0.2
SAWR	≤ 0.2
IKMM	≤ 0.2
RFMT	0.754
HDLV	≤ 0.2
LLSI	≤ 0.2
IMSC	≤ 0.2
FGIY	≤ 0.2
ASLN	≤ 0.2
RFIE	≤ 0.2
QIMM	≤ 0.2
IMAV	≤ 0.2
LQSR	≤ 0.2
AHMA	≤ 0.2
WIRR	≤ 0.2
TLIF	≤ 0.2
AVPI	≤ 0.2
HMLC	≤ 0.2
HYDV	≤ 0.2
AIRS	≤ 0.2
PNWG	≤ 0.2

Variant	one-hybrid fitness for binding parS DNA
YVQE	≤ 0.2
FWGR	≤ 0.2
FNQL	≤ 0.2
RGDV	≤ 0.2
HLHG	≤ 0.2
AIFT	≤ 0.2
FTQV	≤ 0.2
YDLG	≤ 0.2
PLPN	≤ 0.2
TGCM	≤ 0.2
LQTK	≤ 0.2
KGFI	≤ 0.2
NSSN	≤ 0.2
ATCC	≤ 0.2
QNIE	≤ 0.2
SERG	≤ 0.2
SETT	≤ 0.2
LHEC	≤ 0.2
FTAQ	≤ 0.2
TMTV	≤ 0.2
VRSE	≤ 0.2
PCYG	≤ 0.2
IQRL	≤ 0.2
KWRA	≤ 0.2
RSFG	0.94

Variant	one-hybrid fitness for binding parS DNA
CLDY	≤ 0.2
GLKK	≤ 0.2
RLDC	0.938
QTME	≤ 0.2
CRTT	≤ 0.2
DWST	≤ 0.2
GVRL	≤ 0.2
KFRN	≤ 0.2
ILTG	≤ 0.2
IDRP	≤ 0.2
AAFI	≤ 0.2
PWNG	≤ 0.2
ASPY	≤ 0.2
WAGG	≤ 0.2
KRSM	≤ 0.2
EAQQ	≤ 0.2
HDRW	≤ 0.2
MIES	≤ 0.2
VKDR	≤ 0.2
LYPA	≤ 0.2
SGRP	≤ 0.2
NTKI	≤ 0.2
PYQT	≤ 0.2
VAAK	≤ 0.2
ANFK	≤ 0.2

Variant	one-hybrid fitness for binding parS DNA
VYRY	≤ 0.2
GVKR	≤ 0.2
FMWR	≤ 0.2
ALLN	≤ 0.2
LAAV	≤ 0.2
HPQQ	≤ 0.2
NTSF	≤ 0.2
FRHA	≤ 0.2
IDLS	≤ 0.2
PAEA	≤ 0.2
SRMD	≤ 0.2
VCDR	≤ 0.2
TWLY	≤ 0.2
FLPM	≤ 0.2
DHNQ	≤ 0.2
RSCQ	≤ 0.2
YHRC	≤ 0.2
RHRH	0.232
SMWR	≤ 0.2
WHSR	≤ 0.2
QMVG	≤ 0.2
TWIT	≤ 0.2
PWLT	≤ 0.2
TALS	≤ 0.2
ARIE	≤ 0.2

Variant	one-hybrid fitness for binding parS DNA
PREV	≤ 0.2
HVRW	≤ 0.2
HANT	≤ 0.2
LYSW	≤ 0.2
RQNY	0.442
SPMC	≤ 0.2
GLSF	≤ 0.2
SSAE	≤ 0.2
KFSC	≤ 0.2
GNIW	≤ 0.2
VTPR	≤ 0.2
SVNV	≤ 0.2
IWNG	≤ 0.2
PCIC	≤ 0.2
AVAW	≤ 0.2
VNRV	≤ 0.2
TYMC	≤ 0.2
SLTI	≤ 0.2
RVEL	≤ 0.2
LISK	≤ 0.2
IEST	≤ 0.2
YHEG	≤ 0.2
NQCS	≤ 0.2
NGPC	≤ 0.2
PALC	≤ 0.2

Variant	one-hybrid fitness for binding parS DNA
QQMH	≤ 0.2
MASV	≤ 0.2
AGMR	≤ 0.2
KLPI	≤ 0.2
WRWS	≤ 0.2
MTNL	≤ 0.2
VCSC	≤ 0.2
QGWS	≤ 0.2
REQP	≤ 0.2
MAFM	≤ 0.2
RMPM	≤ 0.2
SHCR	≤ 0.2
CDNT	≤ 0.2
VKDT	≤ 0.2
HVIS	≤ 0.2
YCHT	≤ 0.2
EGYR	≤ 0.2
LCPS	≤ 0.2
ACPK	≤ 0.2
SASI	≤ 0.2

Reference: a collection of fitness landscapes (doi:10.1016/j.celrep.2020.107928)
